Measurements published in patent US20200354402A1, “PEPTIDE COMPOSITIONS AND RELATED METHODS” (Allegro Pharmaceuticals, LLC, priority 2017, published 2020).
Structures can show the parent of a compound that is named as a salt. Not every detail of the peptide structures is certain; ends, links or a residue may be inferred. Some entries repeat one wording, which the source may state once for all of them. Square brackets hold non-standard residues; d marks the D form. Peptide text beside a SMILES is read from it. Cya = N[C@@H](CS(=O)(=O)O)C(=O)O

Experiments:
[1] = test system: ischemia-induced retinal neovascularization; assay: mouse model of retinopathy of prematurity (ROP): area of retinal neovascularization after intravitreal injection; type: in vivo, C57BI/6 mice; settings: for Mean % Reduction of Retinal Neovascularization In ROP Model / Activity At Dose Tested: ROP mouse model; for Mean % Reduction of Retinal Neovascularization In ROP Model: intravitreal injection of 1.0 microliters containing 20 micrograms of Test Compound, read on post-natal day 17, 5 days after injection; for Activity At Dose Tested: intravitreal injection of 20 micrograms of Test Compound
[2] = test system: ischemia-induced retinal neovascularization; settings: intravitreal injection; stated as known; cited from earlier work

| Compound | Mean % Reduction of Retinal Neovascularization In ROP Model [1] [%] | Activity At Dose Tested [1] | known activity of the control peptides [2] | effect of added taurine on neovascularization suppressing activity ([1]; addition of three parts taurine to one part of the peptide) |
| --- | --- | --- | --- | --- |
| N=C(N)NCCC[C@H](N)C(=O)N[C@@H](CS(=O)(=O)O)C(=O)NCC(=O)O [Compound 5] (H-Arg-[Cya]-Gly-OH) | 33 | Slightly Active |  |  |
| N=C(N)NCCC[C@H](NC(=O)CNC(=O)[C@@H](N)CC(=O)O)C(=O)O [Compound 17] (H-Asp-Gly-Arg-OH) | 56 | Active |  |  |
| N=C(N)NCCC[C@H](N)C(=O)NCC(=O)N[C@@H](CC(=O)O)C(=O)O [Compound 15] | 37 | Slightly Active |  |  |
| NCCCC[C@H](N)C(=O)NCC(=O)N[C@@H](CS(=O)(=O)O)C(=O)O [Compound 6] (H-Lys-Gly-[Cya]-OH) | 0 | Not Active |  |  |
| NCCCC[C@H](N)C(=O)NCC(=O)N[C@@H](CC(=O)O)C(=O)O [Compound 20] (H-Lys-Gly-Asp-OH) | 40 | Active |  |  |
| N=C(N)NCCC[C@H](N)C(=O)NCC(=O)N[C@@H](CCC(=O)O)C(=O)O [Compound 21] (H-Arg-Gly-Glu-OH) | 0 | Not Active |  |  |
| N=C(N)NCCC[C@H](N)C(=O)NCC(=O)N[C@@H](CC(N)=O)C(=O)O [Compound 16] (H-Arg-Gly-Asn-OH) | 64 | Active |  |  |
| N=C(N)NCCC[C@H](NC(=O)[C@@H](N)CS(=O)(=O)O)C(=O)NCC(=O)O [Compound 8] (H-[Cya]-Arg-Gly-OH) | 21 | Slightly Active |  |  |
| N=C(N)NCCC[C@H](N)C(=O)NCC(=O)N[C@@H](CS(=O)(=O)O)C(=O)O [Test Compound 1, R—G-Cys(acid).TFA] (H-Arg-Gly-[Cya]-OH) |  |  | known to be active |  |
| N=C(N)NCCC[C@H](N)C(=O)NCC(=O)N[C@@H](CS(=O)(=O)O)C(=O)O [Compound 1] (H-Arg-Gly-[Cya]-OH) | 61 | Active |  |  |
| N=C(N)NCCC[C@H](NC(=O)CNC(=O)[C@@H](N)CS(=O)(=O)O)C(=O)O [Compound 9] (H-[Cya]-Gly-Arg-OH) | 63 | Active |  |  |
| C[C@H](NC(=O)[C@@H](N)CS(=O)(=O)O)C(=O)N[C@@H](CCCNC(=N)N)C(=O)O [Compound 10] (H-[Cya]-Ala-Arg-OH) | 0 | Not Active |  |  |
| N=C(N)NCCC[C@H](N)C(=O)N[C@@H](CCC(=O)O)C(=O)NCC(=O)O [Compound 22] (H-Arg-Glu-Gly-OH) | 0 | Not Active |  |  |
| N=C(N)NCCC[C@H](N)C(=O)NCC(=O)N[C@@H](CS)C(=O)O [Compound 4] (H-Arg-Gly-Cys-OH) | 66 | Active |  |  |
| C[C@@H](O)[C@H](NC(=O)[C@H](CS(=O)(=O)O)NC(=O)CNC(=O)[C@H](CCCNC(=N)N)NC(=O)CN)C(=O)N1CCC[C@H]1C(=O)O [ALG-1001, Glycinyl-Arginyl-Glycinyl-Cysteic(Acid)-Threonyl-Proline] (H-GRG[Cya]TP-OH) |  |  |  | improves the neovascularization suppressing activity |
| C[C@H](NC(=O)[C@@H](N)CCCNC(=N)N)C(=O)N[C@@H](CC(=O)O)C(=O)O [Compound 23] (H-Arg-Ala-Asp-OH) | 0 | Not Active |  |  |
| C[C@H](NC(=O)[C@@H](N)CCCNC(=N)N)C(=O)N[C@@H](CCC(=O)O)C(=O)O [Compound 19] (H-Arg-Ala-Glu-OH) | 63 | Active |  |  |
| N=C(N)NCCC[C@H](NC(=O)[C@H](CS(=O)(=O)O)NC(=O)CN)C(=O)O [Compound 11] (H-Gly-[Cya]-Arg-OH) | 0 | Not Active |  |  |
| N[C@@H](Cc1c[nH]cn1)C(=O)NCC(=O)N[C@@H](CS(=O)(=O)O)C(=O)O [Compound 14] (H-His-Gly-[Cya]-OH) | 28 | Slightly Active |  |  |
| N=C(N)NCCC[C@H](N)C(=O)NCC(=O)N[C@@H](CS(=O)(=O)O)C(=O)O [Compound 2] (H-Arg-Gly-[Cya]-OH) | 72 | Active |  |  |
